{
  "source": "PubChem BioAssay AID504466",
  "about": "(National Center for Advancing Translational Sciences (NCATS), 2011)",
  "note": "In all, about 330,000 compounds went through this assay and about 4,200 (1.3%) were called active. This list was built around the results that the source calls inconclusive (neither active nor inactive); the mix of calls is not that of the screen. Calls come from the whole dose curve; as a rule, active = well fitted activation curve with a large enough effect; inconclusive = small, poorly fitted or top-dose-only effect; inactive = no such curve, though single readings can be large or run the other way. Potencies beside an inconclusive call are fits to weak or partial responses and may not hold up. Potency is the fitted concentration of half-maximal effect; tags give direction and shape of the fitted curve.",
  "data": [
    {"assay": "qHTS screen for small molecules that induce genotoxicity in human embryonic kidney (HEK293T) cells expressing luciferase-tagged ELG1; note: nearly all actives have a fitted effect of over 60% in size; for activity change, positive = activation: % of control where 0% means no effect", "conditions": "HEK293T ELG1-luciferase reporter, luminescence, 16 h; series mostly up to 46 µM; activity change, positive = activation: at the top concentration", "description": "NIH Molecular Libraries Probe Production Network [MLPCN] NIH Chemical Genomics Center [NCGC] MLPCN Grant: 1 R03 MH092164-01 Assay Provider: Kyungjae Myung, NHGRI, NIH Keywords: MLPCN, qHTS, NCGC, genotoxicity, cancer Assay Overview: Cancer cells divide rapidly compared to normal cells in the body. During cell division, cancer cells need to duplicate their genome by DNA replication. The failure of genome duplication leads to cancer cells' death. Therefore, inhibitors of DNA replication could specifically kill cancer cells. Based on this concept, many chemotherapeutic agents were developed and have been used to treat cancer patients. However, there are a limited number of agents available in the clinical setting, and some of those that do exist have low efficacy and severe side effects. Therefore, if we can find the compounds that effectively block DNA replication either by directly damaging DNA or by inhibiting other cellular mechanisms, the options for cancer treatment will be broadened. With this in mind, we developed a quantitative high-throughput ELG1-luciferase reporter gene assay. Since the level of human ELG1 protein is enhanced in response to genetic stresses, increases in luciferase activity can be used to identify compounds that cause genetic stress.\nAssay Protocol Summary: For genotoxicity screening, 2,000 cells in 5 uL/well were dispensed into white, solid-bottom 1536-well plates using a solenoid-based dispenser. Following transfer of 23 nL compound or DMSO vehicle by a pin tool, the plates were incubated 16 hr at 37 °C and 5% CO2. 5 ul ONE-Glo (Promega) was then added to each plate and following a 30 min incubation at room temperature, luciferase activity was quantified on a ViewLux CCD-based plate reader.", "values": [
      {"smiles": "O=C(c1ccccc1)c1ccc2cc(O)ccc2c1", "Potency": "inconclusive: 14.6 µM [activator, single point]"},
      {"smiles": "Cc1csc(N/N=C/c2ccccn2)n1", "Potency": "active: 11.6 µM"},
      {"smiles": "Cc1cc(C(=O)COC(=O)c2ccc(O)cc2)c(C)n1CC1COc2ccccc2O1", "note": "(configuration not stated)", "activity change, positive = activation": "inactive: -6.74%"},
      {"smiles": "COC(=O)c1cc(-c2c(C)nn(-c3ccccc3)c2C)n[nH]1", "Potency": "inconclusive: 23.1 µM [activator, single point]"},
      {"smiles": "O=C(Nc1ccn(C2CC(OC(=O)c3ccccc3)C(CO)O2)c(=O)n1)c1ccccc1", "note": "(configuration not stated)", "activity change, positive = activation": "inactive: -4.32%"},
      {"smiles": "O=C(Nc1ccccc1F)c1ccc(Br)o1", "activity change, positive = activation": "inactive: 13.8%"},
      {"smiles": "O=C(NCCC1=CCCCC1)c1c(O)nc2ccccn2c1=O", "Potency": "inconclusive: 16.4 µM [activator, partial curve, poor fit]"},
      {"smiles": "CN(C)c1ccc(C2Nc3cccc4cccc(c34)N2)cc1", "Potency": "inconclusive: 14.6 µM [activator, partial curve, poor fit]"},
      {"smiles": "N#C/C(=C\\c1ccc(OCc2ccccc2)cc1)C(N)=O", "Potency": "inconclusive: 16.4 µM [activator, single point]"},
      {"smiles": "CCc1cc2c(C)ccc(C)c2nc1SCC(=O)Nc1c(C)[nH]c(=O)[nH]c1=O", "Potency": "inconclusive: 29.1 µM [activator, partial curve, poor fit]"},
      {"smiles": "O=C(CCn1ccc2cc(S(=O)(=O)N3CCCC3)ccc21)NCc1cccc(F)c1", "activity change, positive = activation": "inactive: -4.11%"},
      {"smiles": "O=C(CNC(=O)C(c1ccccc1)c1ccccc1)N/N=C/c1ccc(O)cc1O", "Potency": "inconclusive: 20.6 µM [activator, single point]"},
      {"smiles": "O=C(CSc1cccc[n+]1[O-])c1ccc(-c2ccccc2)cc1", "Potency": "inconclusive: 20.6 µM [activator, single point]"},
      {"smiles": "Cc1ccc(OCc2cc(C(=O)Nc3ccccc3)oc2C)cc1", "Potency": "inconclusive: 11.2 µM [activator, partial curve]"},
      {"smiles": "COc1ccc(NC(=O)c2coc(C)c2)cc1", "Potency": "inconclusive: 6.31 µM [activator, partial curve]"},
      {"smiles": "COc1ccc(-c2csc(NC(=O)CSc3nc4ccccc4c(=O)[nH]3)n2)cc1", "Potency": "inconclusive: 8.2 µM [activator, partial curve, poor fit]"},
      {"smiles": "CCn1cnc2cc(NCc3cccs3)ccc21", "Potency": "inconclusive: 23.1 µM [activator, partial curve, poor fit]"},
      {"smiles": "Cc1ccc(-c2nc3c(c(SCC(=O)N4CCOCC4)n2)Cc2c(CO)cnc(C)c2O3)cc1", "activity change, positive = activation": "inactive: -7.64% [at 9.26 µM]"},
      {"smiles": "Cc1ccc(S(=O)(=O)N(C(=O)c2ccncc2)c2ccc(OC(=O)c3ccncc3)c3ccccc23)c(C)c1", "activity change, positive = activation": "inactive: -30.2%"},
      {"smiles": "O=C(N/N=C/c1cccc(O)c1)c1cc(-c2ccc3c(c2)OCO3)n[nH]1", "activity change, positive = activation": "inactive: -2.29%"},
      {"smiles": "O=C(Nc1ccc(-c2nc3ncccc3o2)cc1)c1ccco1", "Potency": "inconclusive: 5.8 µM [activator, partial curve]"},
      {"smiles": "O=C(CCc1nnc(C2(c3ccc(Cl)cc3)CCC2)o1)N1CCCC1", "Potency": "inconclusive: 23.1 µM [activator, single point]"},
      {"smiles": "c1csc(-c2nc(CN3CCSCC3)cs2)c1", "Potency": "active: 2.59 µM"},
      {"smiles": "CCN(CC)c1ccc(/C=C/c2nc3ccccc3s2)cc1", "Potency": "active: 0.461 µM"},
      {"smiles": "CSc1cccc(NC(=O)C2CCCN2S(=O)(=O)c2ccc3c(c2)CCC(=O)N3)c1", "note": "(configuration not stated)", "Potency": "inconclusive: 16.4 µM [activator, single point]"},
      {"smiles": "CC1CCCN(C(=S)NC2CCCC2)C1", "note": "(configuration not stated)", "activity change, positive = activation": "inactive: 2.23%"},
      {"smiles": "CCOC(=O)c1c(C)oc2c1c1c(c3ccccc32)OCN(Cc2cccnc2)C1", "Potency": "active: 14.6 µM"},
      {"smiles": "O=C1NC(c2ccccn2)Nc2sc3c(c21)CCC3", "note": "(configuration not stated)", "Potency": "inconclusive: 20.6 µM [activator, partial curve, poor fit]"},
      {"smiles": "COc1ccccc1C(=O)Nc1nnc(SCC(=O)Nc2ccc3c(c2)oc2ccccc23)s1", "Potency": "inconclusive: 6.51 µM [activator, partial curve]"},
      {"smiles": "O=C(Nc1ccc(O)cc1)c1ccc(NC(=O)c2ccco2)cc1", "Potency": "inconclusive: 16.4 µM [activator, partial curve, poor fit]"},
      {"smiles": "CS(=O)(=O)NCc1ccc(C(=O)NC2CCCCC2)cc1", "activity change, positive = activation": "inactive: 1.35%"},
      {"smiles": "CC(=O)/C=C/c1ccccc1Oc1c(F)c(F)nc(F)c1F", "Potency": "inconclusive: 29.1 µM [activator, partial curve, poor fit]"},
      {"smiles": "Cc1ccc(-c2cc3ccccc3nc2N)cc1", "Potency": "inconclusive: 16.4 µM [activator, partial curve]"},
      {"smiles": "Cn1ncc(Br)c1C(=O)Nc1ccc(Br)cn1", "activity change, positive = activation": "inactive: -2.36%"},
      {"smiles": "Cc1nc(-c2ccccc2)sc1-c1nnc(C2CC2)o1", "Potency": "inconclusive: 16.4 µM [activator, partial curve, poor fit]"},
      {"smiles": "c1ccc(-c2csc(Nc3ccccn3)n2)cc1", "Potency": "active: 2.91 µM"},
      {"smiles": "CCC(C)c1ccc2oc(-c3ccc(NC(=O)c4ncn[nH]4)cc3)nc2c1", "note": "(configuration not stated)", "Potency": "inconclusive: 20.6 µM [activator, partial curve, poor fit]"},
      {"smiles": "CCCC(=O)N1CCc2cc(-c3nc(N)sc3C)ccc21", "Potency": "inconclusive: 14.6 µM [activator, partial curve, poor fit]"},
      {"smiles": "COc1cc(SC)ccc1C(=O)Nc1ccc(C)cc1", "Potency": "inconclusive: 3.66 µM [activator, full curve]"},
      {"smiles": "O=C(Cn1cnc2ccccc21)Nc1ccc2c(c1)OCCCO2", "activity change, positive = activation": "inactive: 2.67%"},
      {"smiles": "COC(=O)c1ccc(NCC(=O)c2ccccc2)cc1", "Potency": "inconclusive: 5.17 µM [activator, partial curve]"},
      {"smiles": "O=C(Nc1ccc2c(c1)OCO2)c1ccccn1", "Potency": "inconclusive: 16.4 µM [activator, partial curve]"},
      {"smiles": "CCSc1nnc(NC(=O)c2ccc3nc[nH]c3c2)s1", "Potency": "inconclusive: 16.4 µM [activator, partial curve, poor fit]"},
      {"smiles": "O=C(NCCc1ccccc1)c1ccc2c(c1)S(=O)(=O)c1cc(Cl)ccc1C2=O", "activity change, positive = activation": "inactive: -3.56%"},
      {"smiles": "CC1CCN(C(=O)c2cc3ccccc3o2)CC1", "Potency": "active: 13 µM"},
      {"smiles": "O=C(c1ccc2oc(CCCc3ccccc3)nc2c1)N1CCCC(CCCO)C1", "note": "(configuration not stated)", "activity change, positive = activation": "inactive: 2.42%"},
      {"smiles": "COc1ccc(C(=O)OC2CCN(c3ncc(C(F)(F)F)cc3Cl)CC2)cc1", "activity change, positive = activation": "inactive: -0.616%"}
    ]}
  ]
}
